According to the supplement of paper PMC4166925:
± gives the standard deviation of the averaged measurements. In all, about 33,000 sequences were measured (“E-score (dimensionless, -0.5 to 0.5)”: median about -0.046, highest 2% from about 0.36 on). The list shows a part of the results.

Tested on: T1, SpTbr T-box DNA-binding domain (GST fusion)
T1 sequence: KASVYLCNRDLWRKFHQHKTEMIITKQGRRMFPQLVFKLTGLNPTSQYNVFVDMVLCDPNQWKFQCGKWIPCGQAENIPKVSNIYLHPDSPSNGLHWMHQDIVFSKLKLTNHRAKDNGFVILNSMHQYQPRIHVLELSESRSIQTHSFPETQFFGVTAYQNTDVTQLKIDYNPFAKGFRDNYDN
Assay: PBM E-score of 8-mer (E-score (dimensionless, -0.5 to 0.5)); Tbr is Tbrain of the sea star Patiria miniata (Pm) or the sea urchin Strongylocentrotus purpuratus (Sp); higher = stronger binding preference; most listed sequences are background and not binding sites
Conditions: the construct has about 5 more residues each side
Outline: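 Primer extension turned Universal Agilent oligonucleotide arrays double-stranded. They were incubated with 200 nM protein in PBS (pH 7.5); the protein was a GST-fused Tbr T-box DNA-binding domain expressed in BL21 E. coli at 20 °C and purified on glutathione. Every ungapped 8-mer was scored from the scanned, quantified probe intensities, and the Universal PBM Analysis Suite gave each an enrichment E-score averaged over duplicate arrays.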

Row | Sequence | PBM E-score of 8-mer
1 | CCCCCACC | -0.0478 ± 0.029
2 | ATACTCTC | -0.141 ± 0.041
3 | CACGGGAA | 0.0226 ± 0.0042
4 | GAGAACCA | 0.0017 ± 0.11
5 | CCCAGACG | -0.0648 ± 0.012
6 | AGGGCACT | -0.141 ± 0.08
7 | ATCTCTTG | 0.011 ± 0.0073
8 | CTCCCATA | -0.161 ± 0.043
9 | GCTACGCC | 0.0298 ± 0.029
10 | GAGGGAAA | -0.127 ± 0.035
11 | ATTGCAGA | -0.0149 ± 0.092
12 | CCGTAACC | 0.0545 ± 0.016
13 | CACCCTGG | 0.196 ± 0.051
14 | ACAGCCAC | 0.0867 ± 0.049
15 | CCTCATGC | -0.0225 ± 0.055
16 | AAATTCAT | -0.208 ± 0.072
17 | ATCGTCCG | -0.135 ± 0.014
18 | ACTTCATG | -0.0152 ± 0.015
19 | CACCCGTA | 0.154 ± 0.075
20 | AGAGGAGC | -0.0105 ± 0.083
21 | CCGCGAAC | 0.338 ± 0.0083
22 | AACAGTTA | 0.255 ± 0.015

Row | Sequence | PBM E-score of 8-mer
23 | ACGCGCCG | 0.227 ± 0.11
24 | AATCCATG | -0.23 ± 0.041
25 | CGTTTTAG | -0.0242 ± 0.011
26 | GGACCACA | -0.0704 ± 0.071
27 | GCTCAGGA | -0.213 ± 0.031
28 | AAAGTGTT | 0.416 ± 0.035
29 | ACGAAGTA | -0.0771 ± 0.0073
30 | ACTCGGGG | -0.246 ± 0.072
31 | GGACTGTA | -0.226 ± 0.0032
32 | CGGCAAAC | 0.0128 ± 0.0013
33 | ACATCGCT | 0.101 ± 0.02
34 | AGGTTCCA | -0.0895 ± 0.035
35 | AATGCGGT | -0.158 ± 0.016
36 | CCTCCAGA | -0.13 ± 0.058
37 | AGGCAGAT | -0.0669 ± 0.075
38 | GGAGTCCA | -0.136 ± 0.014
39 | TAATTAAA | -0.128 ± 0.06
40 | ATCATTGG | 0.0423 ± 0.055
41 | CATCCCTC | -0.127 ± 0.048
42 | TAAATGCA | -0.238 ± 0.0051
43 | AAGAGAAG | 0.0157 ± 0.045
44 | AGCGTTGC | -0.00298 ± 0.059

Row | Sequence | PBM E-score of 8-mer
45 | AGTCAGAG | -0.377 ± 0.027
46 | TAATCGCA | 0.238 ± 0.044
47 | CAACGGCG | 0.0935 ± 0.02
48 | AGTGTTGC | 0.346 ± 0.0099
49 | ACTCCGCC | -0.12 ± 0.0042
50 | ACTCACCC | 0.184 ± 0.048
51 | TAGAACGA | -0.154 ± 0.0016
52 | AATATGTA | -0.00826 ± 0.042
53 | AGGTTCGC | 0.275 ± 0.014
54 | ACGACAGG | 0.0347 ± 0.08
55 | TGAACGAA | -0.176 ± 0.038
56 | CAAGTGAA | 0.0357 ± 0.021
57 | ATACACCC | 0.0215 ± 0.038
58 | TCGGTGAA | -0.0804 ± 0.055
59 | AAGCTTAC | -0.128 ± 0.056
60 | TAACATGA | 0.0612 ± 0.07
61 | AAAACCTC | -0.21 ± 0.0076
62 | CGCCCTGC | 0.0269 ± 0.028
63 | GAGGGAGA | -0.0059 ± 0.0082
64 | ATTAAGCA | -0.251 ± 0.014
65 | CAGTGCTC | 0.0319 ± 0.0026
66 | CGAGGTTA | 0.0218 ± 0.011

Row | Sequence | PBM E-score of 8-mer
67 | CCTTTTTA | -0.0557 ± 0.078
68 | TGAGGCCA | -0.213 ± 0.046
69 | ACTGTGCA | -0.0113 ± 0.0028
70 | AGCCTACG | -0.0647 ± 0.015
71 | CATTGGAC | -0.0809 ± 0.041
72 | CGTAAATC | 0.0659 ± 0.057
73 | AAGCGTAC | -0.16 ± 0.065
74 | ATAGGATG | 0.012 ± 0.026
75 | AATCTATA | -0.209 ± 0.0095
76 | CGGGGTGA | 0.231 ± 0.024
77 | AGCGAGGC | 0.112 ± 0.037
78 | CACGTACA | 0.268 ± 0.022
79 | AGTCCGCC | -0.104 ± 0.074
80 | ATAGTAAG | -0.227 ± 0.022
81 | GCGAGTTA | 0.101 ± 0.045
82 | CAGCTTCG | 0.189 ± 0.0024
83 | GACTTCGA | 0.0525 ± 0.043
84 | CGCAACCG | 0.191 ± 0.065
85 | GATTTAGA | -0.218 ± 0.035
86 | AAATGAAG | -0.126 ± 0.012
87 | AACGCGCA | -0.0531 ± 0.065
88 | ACTGCTGA | 0.178 ± 0.011

Row | Sequence | PBM E-score of 8-mer
89 | ACAAACCA | -0.162 ± 0.037
90 | ATACCCTG | -0.119 ± 0.008
91 | AGAATAAG | 0.00056 ± 0.059
92 | CCTGTAGA | -0.145 ± 0.0029
93 | GCCATCTA | -0.101 ± 0.012
94 | AGATCAAA | -0.158 ± 0.035
95 | CTAAGCCA | -0.131 ± 0.046
96 | CTGAGTAA | -0.162 ± 0.021
97 | ATAATAAC | 0.128 ± 0.035
98 | ACTCCACG | 0.207 ± 0.0069
99 | AGTCCCAG | -0.163 ± 0.059
100 | AAAAAATT | -0.228 ± 0.12
101 | CCGTTAAC | 0.228 ± 0.007
102 | GGGCCGCA | -0.13 ± 0.0072
103 | AGTTGGAC | -0.178 ± 0.04
104 | CTCCTTGA | -0.166 ± 0.03
105 | ACCAAGCT | -0.00647 ± 0.016
106 | CATGTTGG | -0.162 ± 0.0039
107 | GGCAATCA | -0.11 ± 0.02
108 | CACCAGGG | 0.0496 ± 0.1
109 | ACGAGTAT | -0.0491 ± 0.014
